Laboratory results as given in PubChem BioAssay AID1508642 (National Center for Advancing Translational Sciences (NCATS), 2021).
The whole screen tested about 43,000 compounds, of which about 200 (0.47%) were called active. Inconclusive results (about 12%) are left out. Calls come from the whole dose curve; as a rule, active = well fitted cell-killing curve with a large enough effect; inconclusive = small, poorly fitted or top-dose-only effect, or effect the other way; inactive = flat fitted curve, though single readings scatter. The list shows a part of the results.

Assay: Cell viability qHTS assay in S16 Pmp22-F2sN cells; note: nearly all actives have a fitted effect of over 65% in size
Conditions: S16 Pmp22-F2sN Schwann cells (luciferase reporters placed in the Pmp22 gene) viability, CellTiter-Glo, 24 h; series mostly up to 57.5 µM; activity change, negative = cytotoxicity: at the top concentration
Excerpt: Assay Provider: Jim Inglese Ph.D. National Center for Advancing Translational Science, National Institutes of Health, Rockville, MD CMT is a heterogeneous group of neurological disorders that affect approximately 1 in 2,500 people. In particular, the most common form of CMT, CMT1A is genetically linked to the duplication of the PMP22 gene which leads to Schwann cell overexpression, thus manifesting itself as a typical case of dose-sensitive diseases. To identify small molecule compounds that can mediate the expression of PMP22 we developed a phenotypic assay screening strategy by utilizing genome editing techniques to construct Schwann cell lines containing novel reporter technology to monitor the transcriptional or translational regulation of PMP22. For high sensitivity we use a bioluminescent reporter system embedded in the 3' UTR of the PMP22 gene (S16(c9) Pmp22-F2sN) to identify compounds that inhibit gene expression. […] We can further discriminate the effect of all transcriptionally active molecules on PMP22 translation or stability with an assay that incorporates a short NLuc peptide (HiBiT) at the C-terminus of expressed PMP22 (S16(f8) PMP22-HiBiT) allowing alpha complementation and luminescence detection of membrane-associated PMP22 protein. These assays were screened against the NCATS Sytravon Library Collection. Miniaturization of these assays to 1536-well plate format for quantitative high throughput screening (qHTS) yielded rich data sets immediately from the qHTS assay (S16(c9) Pmp22-F2sN), when compared with data from a cell viability assay (Cell TiterGlo) to identify compounds that decreased the output signals through cellular toxicity to streamline the selection process of actives for subsequent characterization using the HiBiT assay (S16(f8) PMP22-HiBiT).
Cell viability assay in S16 Pmp22-F2sN cells PROTOCOL TABLE (format as described by Inglese J, Shamu CE and Guy RK. 2007) SEQUENCE No. (e.g., 1, 2, 3, etc.); […] (e.g., Cells, Incubation, Reagent, etc.); VALUE and DESCRIPTION. 1. Cells. Add 500-1,000 cells in 4 uL in growth media (DMEM High Glucose, No Phenol Red media + 10% heat-inactivated FBS + 1% Pen/Strep supplemented media) per well into Greiner 1536-well white/solid bottom high base, TC-treated plates. 2. Compounds. Library compounds and controls added at 23nL per well, transferred by Pin Tool. 3. Incubation. Incubate plates at 37C, 5% CO2, 95% RH for 24 h. 4. Reagent. Add 3uL CellTiter-Glo per well of Greiner 1536-well plates. 5. Incubation. Incubate plates at room temperature for 15 min., protect from light. 6. Detector. FLuc luminescence measured using CCD-based camera (Viewlux). NOTES (numbers refer to Sequence numbers above; values are from representative experiments) 6. Luminescence Read: Clear filter; Exposure = 1 sec, Gain = High, Speed = Slow, Binning = 2X REFERENCES: 1. Inglese J, Shamu CE and Guy RK, Reporting data from high throughput screening of small molecule libraries, Nature Chemical Biology, 2007, 3(8): 438-441. doi.org/10.1038/nchembio0807-438 2. Yasgar A, Shinn P, Jadhav A, Auld DS, Michael S, Zheng W, Austin CP, Inglese J and Simeonov A, Compound Management for Quantitative High-Throughput Screening. J. Assoc. Lab. Auto., 2008, 13: 79-89. doi: 10.1016/j.jala.2007.12.004
% is set by controls: 0 for no effect and ±100 for the full control effect; potency is the fitted concentration of half-maximal effect.

Structure (SMILES)	activity change, negative = cytotoxicity	Potency
CCc1cc(=O)[nH]c(SCc2nc(-c3ccccc3C)no2)n1	inactive: 3.74%	
Cc1cc(C)cc(N2C(=O)CS(=O)(=O)C23C(=O)N(Cc2ccccc2)c2ccccc23)c1 (configuration not stated)	inactive: 6.08%	
Cc1cc(OCC(=O)Nc2ncn[nH]2)c(C)c(C)c1Br	inactive: 3.42%	
CCC(=O)N1c2ccc(S(=O)(=O)NCCc3ccccc3)cc2CC1C (configuration not stated)	inactive: -6.74%	
COc1ccc(OC)c(NC(=O)c2nc(SCc3ccc(F)cc3)ncc2Cl)c1	inactive: 2.49%	
O=C(NCCc1csc(-c2ccc(F)cc2)n1)C(=O)Nc1ccc(Cl)cc1	inactive: 0.774%	
CCC(C)NC(=O)C1CCN(S(=O)(=O)c2ccc3c(ccn3CC)c2)CC1 (configuration not stated)	inactive: -7.86%	
Cc1nc2c(C(=O)NCCC(C)C)cnn2c(C)c1Cc1c(F)cccc1Cl	inactive: -3.57%	
COc1ccc2c(c1)c1c(c(=O)n(-c3ccc(C)cc3)c(=O)n1CC(=O)Nc1cc(C)ccc1C)n2C	inactive: 5.88%	
CC1CCCN(Cc2c(O)ccc3c(=O)c(-c4ccc(Cl)cc4)c(C(F)(F)F)oc23)C1 (configuration not stated)	inactive: 23.3%	
COc1cc2c(cc1OC)C(c1cc(OC)c(O)c(OC)c1)CC(=O)N2 (configuration not stated)	inactive: 4.97%	
COc1cccc2sc(N(Cc3cccnc3)C(=O)c3ccc(S(=O)(=O)N(C)C)cc3)nc12	inactive: -23.9%	
O=C(O)c1ccccc1NC(=O)N1c2ccccc2Sc2ccccc21	inactive: 4.27%	
COc1ccccc1CNC(=O)c1cc2cc(S(=O)(=O)N3CCCCC3)ccc2n1C	inactive: -10.6%	
CCOC(=O)C1CCCN(C(=O)C2CCN(S(=O)(=O)c3c(C)noc3/C=C/c3ccc(C)cc3)CC2)C1 (configuration not stated)	inactive: 23%	
COc1ccc(C(=O)Nc2cccc(-c3nc4cccnc4s3)c2C)c(OC)c1	inactive: 4.32%	
CCOC(=O)c1ccccc1NC(=O)Cn1c(=O)n(Cc2ccc(C(=O)NCc3ccc4c(c3)OCO4)cc2)c(=O)c2ccccc21	inactive: -6.24%	
CCOc1ccc(NC(=O)C2CCCN(S(=O)(=O)c3ccc(Br)s3)C2)cc1 (configuration not stated)	inactive: -2.79%	
Cc1ccc(-c2c(C)n3c4c(=O)n(C)c(=O)n(C)c4nc3n2CCCO)cc1		active: 31.6 µM
O=C(CSc1nc2c([nH]c3ccccc32)c(=O)n1-c1ccccc1)Nc1ccccc1F	inactive: 12.2%	
O=C(CCn1cnnn1)Nc1ccccc1	inactive: 0.108%	
COCCCNC(=O)C1CCN(c2ncnc3c2nc2n3CCCCC2)CC1	inactive: 1.16%	
COc1ccc(-c2nc(C)c(CCNC(=O)c3ccccc3Br)s2)cc1OC	inactive: -17.9%	
COc1cccc(Cn2cnc3c2c(=O)n(C)c(=O)n3C)c1	inactive: -28.1%	

Structure (SMILES)	activity change, negative = cytotoxicity	Potency
CC(=O)N1CCCc2cc(S(=O)(=O)N3CCC(N(C)C(C)C)CC3)ccc21	inactive: 0.282%	
Cc1cccc(C(=O)NC(=O)Nc2ccc(-n3nc(C(F)(F)F)cc3C(F)(F)F)cc2)c1	inactive: 1.62%	
CCOc1ccc(NC(=O)c2ccc3nc(Cc4ccccc4)oc3c2)cc1	inactive: -9.65%	
Cc1ccc2oc(C(=O)Nc3sc4c(c3C(=O)NCc3ccccc3)CCCC4)cc(=O)c2c1	inactive: -8.68%	
CCc1cccc(-n2c(=O)c3cccnc3n2CC(=O)Nc2ccccc2C(=O)OC)c1	inactive: 0.0522%	
N#CC1=C2SCN(C3CCCCC3)CN2C(=O)CC1c1ccc(F)cc1 (configuration not stated)	inactive: -3.25%	
CCC(=O)N1CCc2cc(S(=O)(=O)NC(Cc3ccccc3)C(=O)NCc3ccc(F)cc3)ccc21 (configuration not stated)	inactive: 7.29%	
Cc1ccccc1NC(=O)N1CCC(CN2CCCC2)CC1	inactive: 15.8%	
Cc1ccc(OCC(=O)OCc2cc(=O)n3c(C)csc3n2)cc1	inactive: 1.62%	
COc1ccc(-n2nc3cc(C)c(NC(=O)c4ccc(C)cc4C)cc3n2)cc1Cl	inactive: 1.83%	
CCOc1cc(-c2nnc(SCC(=O)NCc3ccc(C)cc3)nc2-c2ccc(OC)c(OCC)c2)ccc1OC	inactive: -13.6%	
CC1C(=O)N2CCCc3cc(S(=O)(=O)Nc4ccc(Br)cc4F)cc1c32 (configuration not stated)	inactive: -1.95%	
COc1cccc(NC(=O)C2CCCN2S(=O)(=O)c2ccc3c(c2)n(C)c(=O)c(=O)n3C)c1 (configuration not stated)	inactive: -2.27%	
O=C(Cn1c(=O)oc2cc(S(=O)(=O)NCc3ccccc3)ccc21)N(CCO)Cc1ccccc1	inactive: -11.3%	
CC(=O)Nc1nonc1-c1nnc(SCc2ccc(C)cc2)n1C	inactive: -4.97%	
CCOC(=O)CNc1ncnc2c1nnn2C	inactive: -21.1%	
CCNC(=O)c1ccc(-n2c(-c3ccccc3)cc3c2CCCCC3)cc1	inactive: 11.9%	
Cc1c(C(=O)Nc2cccc(C(F)(F)F)c2)oc2ccc(S(=O)(=O)N(C)C3CCCCC3)cc12	inactive: -16.8%	
COc1cccc(CNC(=O)CCc2c(C)nn(-c3ccc(N4CCOCC4)nn3)c2C)c1	inactive: -7.98%	
COc1cccc(-c2cc(C(=O)Nc3ccc(F)cc3)[nH]n2)c1	inactive: 6.57%	
CCCNC(=O)c1c2c(nc3ccccc13)C(=O)N(C1CCCCC1)C2	inactive: 1.46%	
CCCc1cc(=O)[nH]c2nnc(SCC(=O)Nc3cccc(C)c3)n12	inactive: 11%	
Cc1cccn2c(=O)c(/C=C(\C#N)c3nc4ccccc4n3C)c(Oc3ccc(Cl)cc3)nc12	inactive: -5.67%	
